Results taken from the supplement of paper PMC7125110.
± gives the standard error. Variants at the floor of the assay are shown more often than the library holds them.

B1: glmS ribozyme (parent)
chain: AUAAAAGCGCCAGAACUACAGAAAUGUAGUUGACGAGGAGGAGGUUUAUCGAAUUUUCGGCGGAUGCCUCCAAA

How the values were obtained:
Details in all cases: with glucosamine-6-phosphate
[1] = variants of: B1; assay: self-cleavage kobs at 40 uM GlcN6P; higher = faster cleavage; RNA array
Outline: (§1)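 Ribozyme variants carrying barcodes were transcribed in situ on sequenced MiSeq chips by E. coli RNA polymerase and tracked at 37 °C with a hybridised Cy3 probe. They were exposed to 40 μM to 10 mM glucosamine-6-phosphate in HEPES/KCl/Mg(OAc)2 buffer. kobs came from exponential decay fits of normalised per-tile medians, and kcat and KM from weighted Michaelis–Menten fits.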

[2] = variants of: B1; assay: self-cleavage kobs at 10000 uM GlcN6P; higher = faster cleavage; RNA array
Outline: as §1

[3] = variants of: B1; assay: self-cleavage kobs at 640 uM GlcN6P; higher = faster cleavage; RNA array
Outline: as §1

[4] = variants of: B1; assay: self-cleavage kobs at 160 uM GlcN6P; higher = faster cleavage; RNA array
Outline: as §1

[5] = variants of: B1; assay: self-cleavage kobs at 2500 uM GlcN6P; higher = faster cleavage; RNA array
Outline: as §1

Variant | self-cleavage kobs at 40 uM GlcN6P [1] | self-cleavage kobs at 10000 uM GlcN6P [2] | self-cleavage kobs at 640 uM GlcN6P [3] | self-cleavage kobs at 160 uM GlcN6P [4] | self-cleavage kobs at 2500 uM GlcN6P [5]
G32A A52U C71A | < 1e-05 s⁻¹ |  |  |  | 
U31C C68A | < 1e-05 s⁻¹ |  |  |  | 
G32A A39G A52U A53C | < 1e-05 s⁻¹ |  |  |  | 
G32U C34G C67U | < 1e-05 s⁻¹ |  |  |  | 
A33U G40U C61U | < 1e-05 s⁻¹ |  |  |  | 
A33U A53U A64U | < 1e-05 s⁻¹ | < 1e-05 s⁻¹ |  |  | 
A33U A64C | < 1e-05 s⁻¹ |  | < 1e-05 s⁻¹ | < 1e-05 s⁻¹ | 
G32C U45C C58G G59U | < 1e-05 s⁻¹ |  |  |  | 
G32U U47C G51A C67A | < 1e-05 s⁻¹ |  |  |  | 
A33C G60C | < 1e-05 s⁻¹ | < 1e-05 s⁻¹ | < 1e-05 s⁻¹ | < 1e-05 s⁻¹ | < 1e-05 s⁻¹
U31A A36C U49A U65A | < 1e-05 s⁻¹ | < 1e-05 s⁻¹ |  |  | 
A33U C61G | < 1e-05 s⁻¹ | < 1e-05 s⁻¹ |  |  | 
A33C G37C | < 1e-05 s⁻¹ |  | < 1e-05 s⁻¹ |  | < 1e-05 s⁻¹
U31A C50U G51U A53G U54G | < 1e-05 s⁻¹ |  | < 1e-05 s⁻¹ | < 1e-05 s⁻¹ | 
A33G U45G | < 1e-05 s⁻¹ | < 1e-05 s⁻¹ | < 1e-05 s⁻¹ | < 1e-05 s⁻¹ | < 1e-05 s⁻¹
G32C U54A U56G | < 1e-05 s⁻¹ |  |  |  | 
U31G A33C | < 1e-05 s⁻¹ |  |  |  | 
U31C C34U U65C | < 1e-05 s⁻¹ | < 1e-05 s⁻¹ |  |  | < 1e-05 s⁻¹
A33G U49G | < 1e-05 s⁻¹ | < 1e-05 s⁻¹ | < 1e-05 s⁻¹ | < 1e-05 s⁻¹ | < 1e-05 s⁻¹
G32U U45A | 0.000103 ± 3.9e-05 s⁻¹ |  | 0.000279 ± 6.8e-05 s⁻¹ | 9.56e-05 ± 2.1e-05 s⁻¹ | 0.000762 ± 0.00034 s⁻¹
A33U C61U C70G | < 1e-05 s⁻¹ |  |  |  | 
U31C U45A | 0.000212 ± 6e-05 s⁻¹ | 0.0108 ± 0.004 s⁻¹ | 0.00258 ± 0.00062 s⁻¹ | 0.000613 ± 0.00012 s⁻¹ | 0.00783 ± 0.0016 s⁻¹
A33C C34G C71U | < 1e-05 s⁻¹ |  |  |  | 
G32U G63U C71A | < 1e-05 s⁻¹ |  |  |  | 
G32U G37C G40C C68A | < 1e-05 s⁻¹ | < 1e-05 s⁻¹ |  |  | 
U31C G66C C67G | < 1e-05 s⁻¹ |  |  |  | 

Variant | self-cleavage kobs at 40 uM GlcN6P [1] | self-cleavage kobs at 10000 uM GlcN6P [2] | self-cleavage kobs at 640 uM GlcN6P [3] | self-cleavage kobs at 160 uM GlcN6P [4] | self-cleavage kobs at 2500 uM GlcN6P [5]
U31C C67U | 4.68e-05 ± 7.4e-06 s⁻¹ |  | 0.000375 ± 4.8e-05 s⁻¹ | 0.000125 ± 2e-05 s⁻¹ | 
A33G U55C | < 1e-05 s⁻¹ | < 1e-05 s⁻¹ |  |  | < 1e-05 s⁻¹
A33G A36G G43A C71U | < 1e-05 s⁻¹ |  | < 1e-05 s⁻¹ |  | < 1e-05 s⁻¹
G32C G38C | < 1e-05 s⁻¹ |  | < 1e-05 s⁻¹ | < 1e-05 s⁻¹ | 
U31G G51C A53C | < 1e-05 s⁻¹ | < 1e-05 s⁻¹ |  |  | 
A33U U56C U57C G60U | < 1e-05 s⁻¹ |  |  |  | < 1e-05 s⁻¹
U31G G37C A48U | < 1e-05 s⁻¹ | < 1e-05 s⁻¹ |  |  | < 1e-05 s⁻¹
G32A G43C | < 1e-05 s⁻¹ |  |  |  | 
G32C A36U G40A C71G | < 1e-05 s⁻¹ |  |  |  | 
A33C C61U C71A | < 1e-05 s⁻¹ | < 1e-05 s⁻¹ |  |  | 
U31A C34G | < 1e-05 s⁻¹ | < 1e-05 s⁻¹ |  | < 1e-05 s⁻¹ | 
A33G A52C | < 1e-05 s⁻¹ | < 1e-05 s⁻¹ |  | < 1e-05 s⁻¹ | < 1e-05 s⁻¹
A33G A64C | < 1e-05 s⁻¹ |  |  | < 1e-05 s⁻¹ | 
G32A G35U C71G | < 1e-05 s⁻¹ | < 1e-05 s⁻¹ | < 1e-05 s⁻¹ |  | < 1e-05 s⁻¹
U31C G32A U55A C71G | < 1e-05 s⁻¹ |  |  |  | 
U31A U49A | < 1e-05 s⁻¹ |  | < 1e-05 s⁻¹ | < 1e-05 s⁻¹ | < 1e-05 s⁻¹
G32U G35U A64U | < 1e-05 s⁻¹ | < 1e-05 s⁻¹ |  |  | 
G32U U55A U65C | < 1e-05 s⁻¹ |  |  |  | 
U31A A36G A52C | < 1e-05 s⁻¹ |  |  |  | 
A33G U54A | < 1e-05 s⁻¹ | < 1e-05 s⁻¹ |  |  | < 1e-05 s⁻¹
G32C C50A | < 1e-05 s⁻¹ | < 1e-05 s⁻¹ |  | < 1e-05 s⁻¹ | 
G32C G62C | < 1e-05 s⁻¹ | < 1e-05 s⁻¹ | < 1e-05 s⁻¹ | < 1e-05 s⁻¹ | < 1e-05 s⁻¹
G32C G62U | < 1e-05 s⁻¹ | < 1e-05 s⁻¹ |  | < 1e-05 s⁻¹ | < 1e-05 s⁻¹
G32U A52G C68G | 0.000277 ± 9.2e-05 s⁻¹ | 0.000398 ± 9.5e-05 s⁻¹ |  |  | 
A33C U57A | < 1e-05 s⁻¹ |  |  | < 1e-05 s⁻¹ | 
A33U G62U G63A C70U | < 1e-05 s⁻¹ | < 1e-05 s⁻¹ | < 1e-05 s⁻¹ | < 1e-05 s⁻¹ | 
